According to patent publication US20250101135A1 (Hoffmann-La Roche, published 2025):

Columns and labels:
[1] = biological target: T1, human fibroblast activation protein (FAP) on cells (human, UniProt Q12884 1-760); experiment: flow cytometry on FAP+ MV-3 cells
T1 construct: also called human FAP; huFAP

[2] = biological target: T2, human 4-1BB (CD137) on cells (human, UniProt Q07011 24-255); experiment: flow cytometry on activated human PBMC, 4-1BB+ CD3+CD8+ T cells
T2 construct: whole, on cells; also called 4-1BB+CD8+; 4-1BB+CD4+

[3] = biological target: T2, human 4-1BB (CD137) on cells; experiment: flow cytometry on activated human PBMC, 4-1BB+ CD3+CD4+ T cells
[4] = biological target: T3, human CD19 on B cell lymphoma and leukemia cell lines (human, UniProt P15391 20-556); experiment: flow cytometry on SU-DHL-8 cells
T3 construct: also called SU-DHL-8; Nalm6
T3 sequence: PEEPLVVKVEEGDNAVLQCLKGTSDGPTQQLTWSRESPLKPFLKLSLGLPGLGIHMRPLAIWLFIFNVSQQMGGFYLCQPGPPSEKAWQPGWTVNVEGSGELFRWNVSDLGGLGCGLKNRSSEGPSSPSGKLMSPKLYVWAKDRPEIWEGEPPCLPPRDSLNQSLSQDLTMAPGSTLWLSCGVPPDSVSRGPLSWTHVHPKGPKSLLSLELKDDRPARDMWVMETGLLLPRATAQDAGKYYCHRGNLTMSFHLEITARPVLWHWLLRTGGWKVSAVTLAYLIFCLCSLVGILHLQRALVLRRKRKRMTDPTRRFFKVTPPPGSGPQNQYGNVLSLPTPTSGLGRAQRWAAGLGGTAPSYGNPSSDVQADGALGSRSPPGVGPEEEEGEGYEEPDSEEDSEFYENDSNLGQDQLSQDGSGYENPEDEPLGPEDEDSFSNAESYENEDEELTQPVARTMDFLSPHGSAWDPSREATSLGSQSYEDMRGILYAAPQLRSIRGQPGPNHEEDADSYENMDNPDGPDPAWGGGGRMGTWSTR

[5] = biological target: T2, human 4-1BB (CD137) on cells; experiment: flow cytometry on activated human PBMC, 4-1BB+ CD4+ T cells
[6] = biological target: T3, human CD19 on B cell lymphoma and …; experiment: flow cytometry on Nalm6 cells
[7] = biological target: T3, human CD19 on B cell lymphoma and …; experiment: flow cytometry on OCI-Ly18 cells
[8] = biological target: T3, human CD19 on B cell lymphoma and …; experiment: flow cytometry on Toledo cells
[9] = biological target: T2, human 4-1BB (CD137) on cells; experiment: flow cytometry on activated human PBMC, 4-1BB+ CD8+ T cells

B1: monovalent FAP(28H1)-targeted human 4-1BB ligand (71-254) trimer-containing Fc (kih) fusion molecule Construct 1.4 (Fc fusion)
chain 1: [no letters for about 200 residues][no letters for about 100 residues][no letters for human IgG1 Fc with changes]
chain 2: [no letters for about 200 residues]GGGGSGGGGSREGPELSPDDPAGLLDLRQGMFAQLVAQNVLLIDGPLSWYSDPGLAGVSLTGGLSYKEDTKELVVAKAGVYYVFFQLELRRVVAGEGSGSVSLALHLQPLRSAAGAAALALTVDLPPASSEARNSAFGFQGRLLHLSAGQRLGVHLHTEARARHAWQLTQGATVLGLFRVTPEIPAGLPSPRSEGGGGSGGGGSRTVAAPSVFIFPPSDRKLKSGTASVVCLLNNFYPREAKVQWKVDNALQSGNSQESVTEQDSKDSTYSLSSTLTLSKADYEKHKVYACEVTHQGLSSPVTKSFNRGEC
heavy: EVQLLESGGGLVQPGGSLRLSCAASGFTFSSHAMSWVRQAPGKGLEWVSAIWASGEQYYADSVKGRFTISRDNSKNTLYLQMNSLRAEDTAVYYCAKGWLGNFDYWGQGTLVTVSSASTKGPSVFPLAPSSKSTSGGTAALGCLVKDYFPEPVTVSWNSGALTSGVHTFPAVLQSSGLYSLSSVVTVPSSSLGTQTYICNVNHKPSNTKVDKKVEPKSCDKTHTCPPCPAPEAAGGPSVFLFPPKPKDTLMISRTPEVTCVVVDVSHEDPEVKFNWYVDGVEVHNAKTKPREEQYNSTYRVVSVLTVLHQDWLNGKEYKCKVSNKALGAPIEKTISKAKGQPREPQVCTLPPSRDELTKNQVSLSCAVKGFYPSDIAVEWESNGQPENNYKTTPPVLDSDGSFFLVSKLTVDKSRWQQGNVFSCSVMHEALHNHYTQKSLSLSPGK
light: EIVLTQSPGTLSLSPGERATLSCRASQSVSRSYLAWYQQKPGQAPRLLIIGASTRATGIPDRFSGSGSGTDFTLTISRLEPEDFAVYYCQQGQVIPPTFGQGTKVEIKRTVAAPSVFIFPPSDEQLKSGTASVVCLLNNFYPREAKVQWKVDNALQSGNSQESVTEQDSKDSTYSLSSTLTLSKADYEKHKVYACEVTHQGLSSPVTKSFNRGEC
notes: text: monomeric 4-1BBL fused to CH1-knob chain, dimeric 4-1BBL on CL*; copies: 1 + 1 + 1 + 1
- EC50 [1]: 5.13 nM
- EC50 [2]: 0.19 nM
- EC50 [3]: 0.34 nM

B2: monovalent CD19(8B8-018) targeted split trimeric 4-1BB ligand (71-248) Fc (kih) fusion containing CH-CL cross without charged residues (construct 3.5) (Fc fusion)
chain 1: REGPELSPDDPAGLLDLRQGMFAQLVAQNVLLIDGPLSWYSDPGLAGVSLTGGLSYKEDTKELVVAKAGVYYVFFQLELRRVVAGEGSGSVSLALHLQPLRSAAGAAALALTVDLPPASSEARNSAFGFQGRLLHLSAGQRLGVHLHTEARARHAWQLTQGATVLGLFRVTPEIPAGLGGGGSGGGGSREGPELSPDDPAGLLDLRQGMFAQLVAQNVLLIDGPLSWYSDPGLAGVSLTGGLSYKEDTKELVVAKAGVYYVFFQLELRRVVAGEGSGSVSLALHLQPLRSAAGAAALALTVDLPPASSEARNSAFGFQGRLLHLSAGQRLGVHLHTEARARHAWQLTQGATVLGLFRVTPEIPAGLGGGGSGGGGSRTVAAPSVFIFPPSDEQLKSGTASVVCLLNNFYPREAKVQWKVDNALQSGNSQESVTEQDSKDSTYSLSSTLTLSKADYEKHKVYACEVTHQGLSSPVTKSFNRGE[no letters for human IgG1 Fc with changes]
chain 2: REGPELSPDDPAGLLDLRQGMFAQLVAQNVLLIDGPLSWYSDPGLAGVSLTGGLSYKEDTKELVVAKAGVYYVFFQLELRRVVAGEGSGSVSLALHLQPLRSAAGAAALALTVDLPPASSEARNSAFGFQGRLLHLSAGQRLGVHLHTEARARHAWQLTQGATVLGLFRVTPEIPAGLGGGGSGGGGSASTKGPSVFPLAPSSKSTSGGTAALGCLVKDYFPEPVTVSWNSGALTSGVHTFPAVLQSSGLYSLSSVVTVPSSSLGTQTYICNVNHKPSNTKVDKKVEPKSC
heavy: QVQLVQSGAEVKKPGASVKVSCKASGYTFTDYIMHWVRQAPGQGLEWMGYINPYNDGSKYTEKFQGRVTMTSDTSISTAYMELSRLRSDDTAVYYCARGTYYYGSALFDYWGQGTTVTVSSASTKGPSVFPLAPSSKSTSGGTAALGCLVKDYFPEPVTVSWNSGALTSGVHTFPAVLQSSGLYSLSSVVTVPSSSLGTQTYICNVNHKPSNTKVDKKVEPKSCDKTHTCPPCPAPEAAGGPSVFLFPPKPKDTLMISRTPEVTCVVVDVSHEDPEVKFNWYVDGVEVHNAKTKPREEQYNSTYRVVSVLTVLHQDWLNGKEYKCKVSNKALGAPIEKTISKAKGQPREPQVCTLPPSRDELTKNQVSLSCAVKGFYPSDIAVEWESNGQPENNYKTTPPVLDSDGSFFLVSKLTVDKSRWQQGNVFSCSVMHEALHNHYTQKSLSLSPGK
light: DIVMTQTPLSLSVTPGQPASISCKSSQSLENPNGNTYLNWYLQKPGQSPQLLIYRVSKRFSGVPDRFSGSGSGTDFTLKISRVEAEDVGVYYCLQLTHVPYTFGQGTKLEIKRTVAAPSVFIFPPSDEQLKSGTASVVCLLNNFYPREAKVQWKVDNALQSGNSQESVTEQDSKDSTYSLSSTLTLSKADYEKHKVYACEVTHQGLSSPVTKSFNRGEC
- EC50 [4]: 0.54 nM
- EC50 [5]: 1.03 nM
- EC50 [6]: 0.43 nM
- EC50 [7]: 0.31 nM
- EC50 [8]: 0.27 nM
- EC50 [9]: 0.04 nM

B3: monovalent FAP(28H1)-targeted human 4-1BB ligand (71-254) trimer-containing Fc (kih) fusion molecule Construct 1.6 (Fc fusion)
chain 1: [no letters for about 200 residues]GGGGSGGGGSREGPELSPDDPAGLLDLRQGMFAQLVAQNVLLIDGPLSWYSDPGLAGVSLTGGLSYKEDTKELVVAKAGVYYVFFQLELRRVVAGEGSGSVSLALHLQPLRSAAGAAALALTVDLPPASSEARNSAFGFQGRLLHLSAGQRLGVHLHTEARARHAWQLTQGATVLGLFRVTPEIPAGLPSPRSEGGGGSGGGGSASTKGPSVFPLAPSSKSTSGGTAALGCLVEDYFPEPVTVSWNSGALTSGVHTFPAVLQSSGLYSLSSVVTVPSSSLGTQTYICNVNHKPSNTKVDEKV[no letters for human IgG1 Fc with changes]
chain 2: [no letters for about 200 residues][no letters for about 120 residues]
heavy: B1 heavy
light: B1 light
notes: monomeric 4-1BBL fused to CL* via (G4S)1 linker
- EC50 [1]: 8.16 nM
- EC50 [2]: 0.19 nM
- EC50 [3]: 0.95 nM

B4: bivalent FAP(28H1)-targeted human 4-1BB ligand (71-254) trimer-containing Fc (kih) fusion molecule Construct 1.8 (Fc fusion)
chain 1: [no letters for about 200 residues]GGGGSGGGGSREGPELSPDDPAGLLDLRQGMFAQLVAQNVLLIDGPLSWYSDPGLAGVSLTGGLSYKEDTKELVVAKAGVYYVFFQLELRRVVAGEGSGSVSLALHLQPLRSAAGAAALALTVDLPPASSEARNSAFGFQGRLLHLSAGQRLGVHLHTEARARHAWQLTQGATVLGLFRVTPEIPAGLPSPRSEGGGGSGGGGSEVQLLESGGGLVQPGGSLRLSCAASGFTFSSHAMSWVRQAPGKGLEWVSAIWASGEQYYADSVKGRFTISRDNSKNTLYLQMNSLRAEDTAVYYCAKGWLGNFDYWGQGTLVTVSSASVAAPSVFIFPPSDRKLKSGTASVVCLLNNFYPREAKVQWKVDNALQSGNSQESVTEQDSKDSTYSLSSTLTLSKADYEKHKVYACEVTHQGLSSPVTKSFNRGE[no letters for human IgG1 Fc with changes]
chain 2: [no letters for about 200 residues]GGGGSGGGGSEIVLTQSPGTLSLSPGERATLSCRASQSVSRSYLAWYQQKPGQAPRLLIIGASTRATGIPDRFSGSGSGTDFTLTISRLEPEDFAVYYCQQGQVIPPTFGQGTKVEIKSSASTKGPSVFPLAPSSKSTSGGTAALGCLVEDYFPEPVTVSWNSGALTSGVHTFPAVLQSSGLYSLSSVVTVPSSSLGTQTYICNVNHKPSNTKVDEKVEPKSC
heavy: B1 heavy
light: B1 light
notes: 4-1BB ligands fused to an anti-FAP CrossFab with charged residues on the knob chain
- EC50 [1]: 2.79 nM
- EC50 [2]: 0.14 nM
- EC50 [3]: 2.77 nM

B5: monovalent FAP(28H1)-targeted human 4-1BB ligand (80-254) trimer-containing Fc (kih) fusion molecule Construct 1.10 (Fc fusion)
chain 1: [no letters for about 200 residues]GGGGSGGGGSDPAGLLDLRQGMFAQLVAQNVLLIDGPLSWYSDPGLAGVSLTGGLSYKEDTKELVVAKAGVYYVFFQLELRRVVAGEGSGSVSLALHLQPLRSAAGAAALALTVDLPPASSEARNSAFGFQGRLLHLSAGQRLGVHLHTEARARHAWQLTQGATVLGLFRVTPEIPAGLPSPRSEGGGGSGGGGSASTKGPSVFPLAPSSKSTSGGTAALGCLVEDYFPEPVTVSWNSGALTSGVHTFPAVLQSSGLYSLSSVVTVPSSSLGTQTYICNVNHKPSNTKVDEKV[no letters for human IgG1 Fc with changes]
chain 2: [no letters for about 200 residues][no letters for about 120 residues]
heavy: B1 heavy
light: B1 light
notes: 4-1BBL ectodomain aa 80-254, charged residues on ligand chains; also called Construct 10
- EC50 [1]: 4.31 nM
- EC50 [2]: 0.12 nM
- EC50 [3]: 0.3 nM
